# Test results as given in the RNAGym collection of RNA variant scans (doi:10.1093/nar/gkz1192).
# Read counts are not given, so values of variants with three or more changes are uncertain.
# B1: CPEB3 Ribozyme (parent)
# chain: UAACAGGGGGCCACAGCAGAAGCGUUCACGUCGCAGCCCCUGUCAGAUUCUGGUGAAUCUGCGAAUUCUGCUGUAUAUCUC
# Variants of: B1
# Assay: self-cleavage, relative activity (ratio to wild type); higher = more cleavage; in vitro, sequencing
# How it was run: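 Libraries of CPEB3 self-cleaving ribozyme mutants came from rounds of error-prone PCR and carried barcodes, which DNA sequencing matched to variants. In vitro transcription used T7 RNA polymerase at 37°C for 5 hours, with a further 15 min in DNase I before EDTA stopped the reaction; the ribozymes cleaved during both steps. The RNA was reverse transcribed with template switching and sequenced on Illumina. Relative activity is the cleaved/total read fraction of a variant divided by that of the unmutated ribozyme, averaged over three batches with at least 5 reads.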
row,Variant,self-cleavage
1,A3G U51A U80C,1.11
2,A3G U26A A57G A75G,0.69
3,A3U A15G C34G U41C A64G C81A,0.12
4,A3G G9A G33A U51C A56C U58A U78A,0.06
5,A3U A13U U41A U60C,0.08
6,A3G U41A U49A,0.49
7,A3U A15C A28C C37U,0.13
8,A3U A15G G19U C23A U26C A35G,0.07
9,A3U A13G A35U U67C,0.33
10,A3G U41A U76A,0.3
11,A3G U41A A47G,0.59
12,A3G G16A A18G G33A C40A A64G U67C,0.11
13,A3U A5C A13G U31C U48C U74A C79U,0.27
14,A3G U26A U41A A45U G46U,0.3
15,A3U A18G G24A U54C A56G,0.2
16,A3U A15G G33A A35U U78C,0.16
17,A3G U58G U67A U69C,0.25
18,A3U A13U U31C A35G C62U,0.32
19,A3G G16C A56U U67C,0.14
20,A3G U25C A56G U80C,0.33
21,A3U A15G A45G,0.75
22,A3U A15G U51C,0.7
23,A3G G10A G30U A57G,0.23
24,A3G U25A A56G U74A A75G,0.08

row,Variant,self-cleavage
1,A3G U51A U54A A56G U60G,0.41
2,A3G U51C U69C,0.64
3,A3G U25G A45G A57U,0.47
4,A3G U25C U26A C39A A57U U66C,0.16
5,A3G G33A G46U,0.1
6,A3U A18G C37U A64U U67A U78C,0.05
7,A3G G24A U25A,0.18
8,A3G U41A A64G U72C,0.47
9,A3G G30A U76C,0.18
10,A3G U26A G46U U72C,0.4
11,A3G G70A U80C,0.54
12,A3G G36A U54C,0.27
13,A3U A5G A35G C37U A65U U72C,0.32
14,A3G U25C U26C U41A U67C,0.14
15,A3U A13G U41A C50U A64U U69C,0.09
16,A3G U25A U31A A47G A65U,0.04
17,A3G G10U A18U U51A,0.11
18,A3G G10U G33C U51C A57G U72C,0.06
19,A3G G24C A45G A57G U60A A64G U66C,0.35
20,A3G G9A C11G U80C,0.42
21,A3G U26A A56U U74C,0.56
22,A3U A13U U48C,1.04
23,A3G U41C U69C,0.61
24,A3G U26C A28C A35G,0.55

row,Variant,self-cleavage
1,A3G U26C U41A U72A U76A,0.53
2,A3G U25C U41C A45G A56G A64U,0.45
3,A3G U26A A35G A56U A75G,1.21
4,A3G G22C U51C A56G C79A,0.34
5,A3G G9A U60C,0.09
6,A3G G24A U26C C29A A56G U72A,0.06
7,A3G G9U G22U U67C U69C,0.14
8,A3G G9A A13U U43A A77G,0.69
9,A3U A5G A15U C34U G53U U54C G70C,0.05
10,A3U A13U U26C U49C A64G C79A,0.32
11,A3U A15U A35G A45G U51G U69A U78C,1.01
12,A3G G10C A15C U48C,0.08
13,A3G U26C U41C A45U U49C,0.08
14,A3G G16A U41C,0.33
15,A3G G10U U60A,0.08
16,A3G U26A G46A U54G A77U,0.36
17,A3G U26A U74C A77U,1.16
18,A3U A13G U41A U58C A64G U76C,0.16
19,A3G G9A U31A U74C,0.43
20,A3G G9U A13U A20G A28G U41A A64G,0.07
21,A3G G52A A56U A64G,0.78
22,A3G U41A U60A A77G,0.04
23,A3U A13G U54A A65G,0.29
24,A3G U67A C81A,0.64

row,Variant,self-cleavage
1,A3G U31C G55U A64G U78C,0.36
2,A3G U31C U43C,0.21
3,A3G G16C A45G A47G,0.11
4,A3G G9A A18G A45C A65G,0.2
5,A3G U25A A47G A57G,0.08
6,A3G U66C U72C,0.57
7,A3G U25C C40U U41C,0.13
8,A3G G8U U25C U26A U41A U43C U80C,0.31
9,A3G U43A A45U A47C A75G,0.08
10,A3G G19C U54C,0.5
11,A3G U54A U58C U66C,0.24
12,A3G U43A U49A U80C,0.73
13,A3U A15U G30A U51A G63U A64G U80C,0.09
14,A3U A15G A47U,0.33
15,A3G U26C U67C,0.2
16,A3G U26C U41A U54G U72A,0.11
17,A3G U43C A47G U72A,0.5
18,A3G G8C U25C U67C,0.32
19,A3G G9A U67A A75G,0.06
20,A3G G42A A56U U69C,0.43
21,A3G G52U U78A,1.18
22,A3G U60C A64U,0.16
23,A3G U41C A57G G73A,1.21
24,A3G G9A U80A,0.25

row,Variant,self-cleavage
1,A3G U26C U49C A56G U60C,0.51
2,A3G G10C U41C A56G U69C,0.1
3,A3G G9A C12U A20G U78A U80C,0.13
4,A3G U26C U60A U74A,0.36
5,A3G U51C U58C U76C,0.24
6,A3U A15G A28C U58C U60C U74C,0.1
7,A3U A5C G30A U72C,0.17
8,A3U A15G U49C U60C A64G,0.19
9,A3G U54C U80C,1.1
10,A3G G30A A45G U72A,0.08
11,A3U A15G U49C,0.63
12,A3G U60C U78G,0.82
13,A3G G9U C68G U80A,0.05
14,A3G U31C A64G,0.56
15,A3U A13U C29U,0.85
16,A3G G8A A21G A77G,0.51
17,A3U A13U A35U U43C,0.53
18,A3G G10A A13U A20U U25C,0.39
19,A3G U48C U67C,0.23
20,A3G U43G A47G U58A U60A A65G G70A,0.01
21,A3U A18G A47U U67C,0.17
22,A3G U26A A28G G30A U41A U66C U67A,0.24
23,A3G G33A U41A U43A U58C,0.09
24,A3G U26C A35U A45U,0.14

row,Variant,self-cleavage
1,A3U A18G A20U U51C U67C U69C U80C,0.15
2,A3U A13G A15G A28G A47G U54A,0.39
3,A3G U26C A57G U66C,0.22
4,A3G G10A G33C A45U U58A U60C G70U,0.03
5,A3G G24A U43C A65G,0.29
6,A3G G10U A18U C34U U49C,0.05
7,A3G U31C U51A A57G U60C,0.39
8,A3U A5G C39G U67A,0.21
9,A3G U43G U58C,0.1
10,A3G U51A A65G,0.43
11,A3G G8U A15C,0.77
12,A3G G8A G10A U60A U74C,0.1
13,A3G U67C U78C,0.37
14,A3G G19C U49A A65U,0.22
15,A3U A13G A15U A35U A64G,0.39
16,A3G G8U U60A U80C,0.33
17,A3G U51A A57G U69C,0.15
18,A3G U41C U43A A64G U69C,0.31
19,A3G U26C U72G U76A,0.37
20,A3G U25G U26C,0.2
21,A3G U72C U78A,1.18
22,A3U A13U U48C A64U U72C U78C U80C,0.23
23,A3U A5G G7C G9A U41C A75G,0.51
24,A3G U25A A28U C32A U67C,0.23

row,Variant,self-cleavage
1,A3G U26C U67C U76A,0.32
2,A3G U48C C59A U78C,0.07
3,A3G U26A G30A U48A U72G,0.07
4,A3G U25C U31C A75G,0.07
5,A3G G52A A65G U67A,0.26
6,A3G U31A U41G,0.53
7,A3G U31A U41A,0.39
8,A3U A15C A21G A28C U72C U80C,0.18
9,A3G G19U A20U A57G A65G U67C,0.05
10,A3U A5G U25A A57G,0.18
11,A3G G33U A65G,0.24
12,A3G U66C U74C,0.5
13,A3G U25C A45G A56G U69C,0.1
14,A3G U25C C38U U76C,0.6
15,A3U A5G A18G A28G U72A,0.31
16,A3G G10U U49C,0.32
17,A3G U41A A56G A64U,0.21
18,A3G G61A A64G,0.75
19,A3G G9A A64U,0.41
20,A3U A15U G42A U48C C79U,0.09
21,A3G G9U C12A,0.25
22,A3G U51A A56G U58C,0.19
23,A3U A15G U48C,0.53
